Measurements as given in PubChem BioAssay AID1508623 (National Center for Advancing Translational Sciences (NCATS), 2021).
Out of some 48,000 compounds screened, about 450 (0.94%) were called active. Roughly 19% stayed inconclusive and do not appear here. The call rests on the fitted dose curve; in most records, active means well fitted inhibition curve with a large enough effect; inconclusive means small, poorly fitted or top-dose-only effect; inactive means no such curve, though single readings can be large or run the other way. The list shows a part of the results.

Assay: Primary qHTS for Identification of Small Molecule Inhibitors of Huntingtin Promoter Activity; further: nearly all actives have a fitted effect of over 50% in size
Conditions: HEK293 HTT promoter firefly luciferase reporter (activity 0% = vehicle and -100% = no light), 24 h; series mostly up to 57.5 µM; activity change, negative = inhibition: at the top concentration
Summary of the method: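 Firefly luciferase signal from promoter-reporter HEK293 cells was scaled between vehicle (0%) and zero RLU (-100%). Compounds were tested at final concentrations of up to 57.5 uM over 24 h at 37 degrees C. PTC124 at 50 uM final served as control inhibitor.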

| SMILES | activity change, negative = inhibition |
| --- | --- |
| COc1cc(NC(=O)CNC(=O)Cn2ccc3ccccc3c2=O)cc(OC)c1OC | inactive: -1.47% |
| Cc1ccc(Cc2cnc(NC(=O)C3Cc4ccc(C)cc4C(=O)O3)s2)cc1 (configuration not stated) | inactive: 3.1% |
| COc1ccc(/C=C/C(=O)c2ccc(OC)cc2OC)cc1 | inactive: -0.467% |
| COc1ccc(C(CNC(=O)c2cccc([N+](=O)[O-])c2)N2CCOCC2)cc1 (configuration not stated) | inactive: -2.49% |
| CC(C(=O)O)c1ccc(C(=O)c2cccs2)cc1 (configuration not stated) | inactive: 13% |
| CCOc1ccc(S(=O)(=O)c2cn(C)c3ccccc3c2=O)cc1 | inactive: -23.5% |
| CC(NC(=O)c1c2c(nc3ccccc13)C(=O)N(C1CCCCC1)C2)c1ccccc1 (configuration not stated) | inactive: -12.3% |
| Cc1ccc(CNC(=O)Cn2c(=O)ccc3cc(S(=O)(=O)N4CCCC4)ccc32)cc1 | inactive: 6.14% |
| CCN(C(=O)c1cccn(Cc2ccccc2C)c1=O)c1ccccc1 | inactive: -16.8% |
| CN(C)c1ccc(NC(=O)CN2C(=O)c3ccccc3Sc3ccc(C(=O)N4CCCC4)cc32)cc1 | inactive: -23.1% |
| CCOC(=O)C1CCN(C(=O)Cn2ncc3c4ccccc4n(Cc4ccccc4F)c3c2=O)CC1 | inactive: -21.7% |
| Cc1ccc(NC(=O)CN2C(=O)CCn3nc(-c4cccn4C)cc32)c(Cl)c1 | inactive: -20.2% |
| Cc1nn(CCCC(=O)NCc2cccc(Cl)c2)c(=O)c2c1sc1ccccc12 | inactive: 0.718% |
| Cc1nnc(NC(=O)CSc2nnc3c(n2)[nH]c2ccccc23)s1 | inactive: -6.79% |
| Cc1cccc(N2CCN(CCCNC(=O)c3sc4ncccc4c3-n3cccc3)CC2C)c1 (configuration not stated) | inactive: 0% |
| O=c1n(Cc2ccc(F)cc2)nc2n1-c1cc(Cl)ccc1OC2 | inactive: -8.85% |
| COc1ccc(NC(=O)C2CCN(c3nc4ccccc4nc3C(F)(F)F)CC2)cc1 | inactive: -1.52% |
| COc1ccc(-c2cn3nc(N4CCC(C(=O)Nc5ccc(Cl)cc5C)CC4)sc3n2)cc1 | inactive: -7.94% |
| COc1ccc(-n2nc(C(=O)NCCc3ccc(OC)c(OC)c3)c3c4ccccc4n(C)c3c2=O)cc1Cl | inactive: -4.76% |
| O=C(Cn1cc(SCc2ccccc2)c2ccccc21)N1CCCCCC1 | inactive: 1.71% |
| Cc1ccc(-c2nc(SCC(=O)N3CCc4ccccc43)c3c(=O)n(C)c(=O)n(C)c3n2)cc1 | inactive: 7.2% |
| Cc1ccc(N2CCN(c3c(CN4CCCC4)c(=O)oc4ccccc34)CC2)c(C)c1 | inactive: 5.69% |
| Cc1ccc(S(=O)(=O)n2nc(C)c(S(=O)(=O)N3CCC(C)CC3)c2C)cc1 | inactive: -7.93% |
| O=C(NCc1ccccc1)c1ccc2c(c1)N(Cc1cccc(Cl)c1)C(=O)c1ccccc1S2(=O)=O | inactive: -13% |

| SMILES | activity change, negative = inhibition |
| --- | --- |
| Cc1ccc2nc(-c3ccc(Cl)c(NC(=O)c4cccc([N+](=O)[O-])c4C)c3)oc2c1 | inactive: 10.9% |
| CCn1ccc2cc(S(=O)(=O)N3CCC(C(=O)NCc4ccc(OC)cc4)CC3)ccc21 | inactive: 0% |
| O=C(COCc1cc(-c2ccco2)on1)Nc1cccc(O)c1 | inactive: 8.82% |
| Cn1c(=O)c(=O)n(C)c2cc(S(=O)(=O)CCC(=O)Nc3cccc(C(F)(F)F)c3)ccc21 | inactive: -5.05% |
| Cc1ccc(-c2nc3c(cnn3-c3ccccc3)c(=O)n2-c2cccc(Cl)c2)cc1 | inactive: -14.6% |
| CN(C)S(=O)(=O)c1ccc2c(c1)N(CC(=O)N1CCN(c3cccc(Cl)c3)CC1)CCS2 | inactive: -9.4% |
| COc1cc(OC)c(N(C)C(=O)C2CCCN(c3ncnc4c3nc3n4CCCCC3)C2)cc1Cl (configuration not stated) | inactive: -24.3% |
| COc1cc(NC(=O)Nc2nnc(N3CCCCCC3)s2)cc(OC)c1 | inactive: 2.63% |
| CC1CCCN(Cc2c(O)ccc3c(=O)c(Oc4ccc(C(C)(C)C)cc4)c(C(F)(F)F)oc23)C1 (configuration not stated) | inactive: -14.7% |
| CCOc1ccc(NC(=O)Cn2c(=O)n(Cc3ccccc3)c(=O)c3sc4ccccc4c32)cc1 | inactive: -60.4% |
| Cc1cc(C)cc(NC(=O)CN2C(=O)CSc3ccc(S(=O)(=O)N4CCCC4)cc32)c1 | inactive: -10.6% |
| CCOc1ccc(NC(=O)c2c(NC(=O)c3cccc(C)c3)sc3c2CCC3)cc1 | inactive: -12.3% |
| O=C(NCC1CCN(Cc2cccc(F)c2)CC1)c1cc2ccc3cccnc3c2[nH]1 | inactive: -1.85% |
| CC1=C(c2ccc(C(C)C)cc2)S(=O)(=O)N=C1N1CCC(C(=O)NCc2ccco2)CC1 | inactive: -24.2% |
| Cc1ccc(CNC(=O)Cn2c(=O)cc(-c3ccccc3)c3c(C)nn(C)c32)cc1 | inactive: 0% |
| Cc1c(C(=O)NCCc2ccccc2)cccc1-n1cnc2cccnc21 | inactive: -12% |
| CCc1ccc(NC(=O)CC2C(=O)N(c3ccc(OC)cc3)C(=O)N2Cc2ccc(OC)cc2)cc1 (configuration not stated) | inactive: -20.8% |
| COc1ccccc1CNC(=O)C1CCN(S(=O)(=O)c2c(C)noc2/C=C/c2cccs2)CC1 | inactive: -20.1% |
| Cc1cc(=O)n(Cc2ccc(F)cc2Cl)c2c1c(C)nn2-c1ccccc1 | inactive: -17.8% |
| CCn1c(=O)c2sccc2n2c(CCCC(=O)N3CCN(c4cc(C)ccc4C)CC3)nnc12 | inactive: -14% |
| Cc1ccn2c(=O)c(C(=O)NCCc3ccc(S(N)(=O)=O)cc3)c(O)nc2c1 | inactive: -12.9% |
| Cc1ccc(NCc2ccccc2-c2nnc(-c3ccccc3Cl)o2)cc1Cl | inactive: 14.3% |
| COc1ccc(N2C(=O)CSC23C(=O)N(CC(=O)NCc2ccccc2)c2ccccc23)cc1 (configuration not stated) | inactive: -5.66% |
